Reference: the supplement of paper PMC8821664
Where a name gives a salt, the structure may show the parent alone. Some of the results follow. Most values come without repeats; read them as rough.

System: Beas-2B AQP5-HiBiT reporter cells
Assay: AQP5-HiBiT luminescence relative to vehicle (ratio to vehicle); higher = higher AQP5-HiBiT protein abundance
Details: 10 µM; 18 h
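Note: monoclonal Beas-2B line stably carrying CMV promoter-driven AQP5-HiBiT, 5,000 cells per well in 384-well plates, lytic HiBiT plus LgBiT NanoLuc luminescence, FDA-approved drug library screen.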

| Structure (SMILES) | AQP5-HiBiT luminescence |
| --- | --- |
| CC[C@@H]1C(=O)OC[C@@H]1Cc1cncn1C [(+)-Pilocarpine hydrochloride] | 0.838 |
| CCN(CC)C(=O)C1(c2ccccc2)CC1CN (stereo not given) [Milnacipran hydrochloride] | 1.14 |
| Cn1c(=O)c2c(ncn2C)n(C)c1=O [Caffeine] | 1.07 |
| C/C=C1\NC(=O)[C@H]2CSSCC/C=C/[C@H](CC(=O)N[C@H](C(C)C)C(=O)N2)OC(=O)[C@H](C(C)C)NC1=O [Romidepsin (FK228, Depsipeptide)] | 0.577 |
| COC(=O)/C=C/C(=O)OC [Dimethyl fumarate] | 1.1 |
| CC(=O)Nc1c(I)c(NC(C)=O)c(I)c(C(=O)O)c1I [Diatrizoate sodium] | 1.29 |
| C[C@@H]1CN(c2c(F)c(N)c3c(=O)c(C(=O)O)cn(C4CC4)c3c2F)C[C@H](C)N1 [Sparfloxacin] | 1.46 |
| NC(=O)C(c1ccccc1)(c1ccccc1)[C@@H]1CCN(CCc2ccc3c(c2)CCO3)C1 [Darifenacin HBr] | 1.51 |
| CCCCc1nc(Cl)c(CO)n1Cc1ccc(-c2ccccc2-c2nnn[nH]2)cc1 [Losartan potassium] | 0.734 |
| Cc1cc(C2CCCCC2)n(O)c(=O)c1 [Ciclopirox ethanolamine] | 2.31 |
| N=C(N)NCCN1CCCCCCC1 [Guanethidine Monosulfate] | 1.1 |
| COc1ccc(CCN(C)CCCC(C#N)(c2ccc(OC)c(OC)c2)C(C)C)cc1OC (stereo not given) [Verapamil hydrochloride] | 1.08 |
| CC1Cc2ccccc2N1NC(=O)c1ccc(Cl)c(S(N)(=O)=O)c1 (stereo not given) [Indapamide] | 0.867 |
| CO[C@@]1(NC(=O)Cc2cccs2)C(=O)N2C(C(=O)O)=C(COC(N)=O)CS[C@@H]21 [Cefoxitin sodium] | 0.97 |
| CC(C)[C@H]1CC[C@H](C(=O)N[C@H](Cc2ccccc2)C(=O)O)CC1 [Nateglinide] | 1.06 |
| CC(C)N1CCN(c2ccc(OCC3COC(Cn4cncn4)(c4ccc(Cl)cc4Cl)O3)cc2)CC1 (stereo not given) [Terconazole] | 2.39 |
| Cc1cc(C)nc(NS(=O)(=O)c2ccc(N)cc2)n1 [Sulfamethazine] | 0.656 |
| CN[C@H](CC(C)C)C(=O)N[C@H]1C(=O)N[C@@H](CC(N)=O)C(=O)N[C@H]2C(=O)N[C@H]3C(=O)N[C@H](C(=O)N[C@H](C(=O)O)c4cc(O)cc(O)c4-c4cc3ccc4O)[C@H](O[C@H]3C[C@](C)(N)[C@@H](O)[C@H](C)O3)c3ccc(c(Cl)c3)Oc3cc2cc(c3O[C@@H]2O[C@H](CO)[C@@H](O)[C@H](O)[C@H]2O[C@H]2C[C@](C)(NCc3ccc(-c4ccc(Cl)cc4)cc3)[C@@H](O)[C@H](C)O2)Oc2ccc(cc2Cl)[C@H]1O [Oritavancin diphosphate] | 0.401 |
| CCn1cc(C(=O)O)c(=O)c2cc(F)c(N3CCNC(C)C3)c(F)c21 (stereo not given) [Lomefloxacin] | 1.07 |
| C=CC1=C(C(=O)O)N2C(=O)[C@@H](NC(=O)/C(=N\O)c3csc(N)n3)[C@H]2SC1 [Cefdinir] | 0.814 |
| CC(=O)CC(c1ccccc1)c1c(O)c2ccccc2oc1=O (stereo not given) [Warfarin sodium] | 0.95 |
| OCCN(CCO)c1nc(N2CCCCC2)c2nc(N(CCO)CCO)nc(N3CCCCC3)c2n1 [Dypyridamole] | 0.718 |
| CC(=O)N1CCN(c2ccc(OCC3COC(Cn4ccnc4)(c4ccc(Cl)cc4Cl)O3)cc2)CC1 (stereo not given) [Ketoconazole] | 1.03 |

| Structure (SMILES) | AQP5-HiBiT luminescence |
| --- | --- |
| CC(C)(S)[C@@H](N)C(=O)O [Artamine] | 0.823 |
| CN1CCC[C@H]1c1cccnc1 [Nicotine] | 0.741 |
| Cc1onc(-c2ccccc2Cl)c1C(=O)N[C@@H]1C(=O)N2[C@@H]1SC(C)(C)[C@@H]2C(=O)O [Cloxacillin sodium monohydrate] | 0.975 |
| CC1=C(C(=O)O)N2C(=O)[C@@H](NC(=O)[C@H](N)C3=CCC=CC3)[C@H]2SC1 [Cephradine] | 1.09 |
| CN(C/C=C/C#CC(C)(C)C)Cc1cccc2ccccc12 [Terbinafine hydrochloride] | 1.23 |
| CC(C)C[C@H](NC(=O)[C@H](CCc1ccccc1)NC(=O)CN1CCOCC1)C(=O)N[C@@H](Cc1ccccc1)C(=O)N[C@@H](CC(C)C)C(=O)[C@@]1(C)CO1 [Carfilzomib (PR-171)] | 126 |
| OC[C@H]1O[C@@H](O[C@@H]2[C@@H](CO)OC(O)(CO)[C@H]2O)[C@H](O)[C@@H](O)[C@H]1O (mixture of isomers) [Lactulose] | 0.636 |
| CN(CCOc1ccc(CC2SC(=O)NC2=O)cc1)c1ccccn1 (stereo not given) [Rosiglitazone maleate] | 0.676 |
| C/C(O)=C(\C#N)C(=O)Nc1ccc(C(F)(F)F)cc1 [Teriflunomide] | 0.65 |
| C=CC1=C(C(=O)O)N2C(=O)[C@@H](NC(=O)/C(=N\OCC(=O)O)c3csc(N)n3)[C@H]2SC1 [Cefixime] | 0.794 |
| CO[C@H]1O[C@@H]2O[C@@]3(C)CC[C@H]4[C@H](C)CC[C@@H]([C@H]1C)[C@@]24OO3 [Artemether] | 1.37 |
| C[C@H](CCC(=O)NCCS(=O)(=O)O)[C@H]1CC[C@H]2[C@@H]3[C@H](O)C[C@@H]4C[C@H](O)CC[C@]4(C)[C@H]3C[C@H](O)[C@]12C [Taurocholic acid sodium salt hydrate] | 0.844 |
| O=C(c1cc(Cc2n[nH]c(=O)c3ccccc23)ccc1F)N1CCN(C(=O)C2CC2)CC1 | 1.15 |
| O=C(C1CCCCC1)N1CC(=O)N2CCc3ccccc3C2C1 (stereo not given) [Praziquantel] | 0.838 |
| CCc1ccc(CCOc2ccc(CC3SC(=O)NC3=O)cc2)nc1 (stereo not given) [Pioglitazone hydrochloride] | 0.662 |
| COc1cc2nccc(Oc3ccc(NC(=O)NC4CC4)c(Cl)c3)c2cc1C(N)=O [Lenvatinib (E7080)] | 0.288 |
| CC(C)NCC(O)COc1cccc2ccccc12 (stereo not given) [Propranolol hydrochloride] | 0.926 |
| C=C1[C@H](CO)[C@@H](O)C[C@@H]1n1cnc2c(=O)[nH]c(N)nc21 [Entecavir] | 0.575 |
| Cc1ccc(NC(=O)c2ccc(CN3CCN(C)CC3)cc2)cc1Nc1nccc(-c2cccnc2)n1 [Imatinib Mesylate (STI571)] | 1.5 |
| Cc1onc(-c2c(Cl)cccc2Cl)c1C(=O)N[C@@H]1C(=O)N2[C@@H]1SC(C)(C)[C@@H]2C(=O)O [Dicloxacillin sodium] | 0.679 |
| CCN(CC)CCOC(=O)C1(C2CCCCC2)CCCCC1 [Dicyclomine hydrochloride] | 1.09 |
| CN1CCN(C2=Nc3cc(Cl)ccc3Nc3ccccc32)CC1 [Clozapine] | 2.07 |
